Substitutions are numbered along the chain they refer to; changes in the protein carry UniProt numbers. Some of the results follow.
B1: UCUCCGA (DNA:RNA)
RNA: GGGAGACCGGAAUUCAGAUUGUCCUCUCCGAUUAAAUCCCGUCGUAGCCACCA
DNA 1: CAATCTGAATTCCGGTCTCCC
DNA 2: TGGTGGCTACGACGGGATT
B2: UUAGCUA (DNA:RNA)
RNA: B1 RNA with C26U, U27A, C28G, G30U
DNA 1: CAATCTGAATTCCGGTCTCCC
DNA 2: TGGTGGCTACGACGGGATT
B3: GCAUGUG (DNA:RNA)
RNA: B1 RNA with U25G, U27A, C28U, C29G, G30U, A31G
DNA 1: CAATCTGAATTCCGGTCTCCC
DNA 2: TGGTGGCTACGACGGGATT
B4: CCACUGC (DNA:RNA)
RNA: B1 RNA with U25C, U27A, C29U, A31C
DNA 1: CAATCTGAATTCCGGTCTCCC
DNA 2: TGGTGGCTACGACGGGATT
B5: ACCCGGG (DNA:RNA)
RNA: B1 RNA with U25A, U27C, C29G, A31G
DNA 1: CAATCTGAATTCCGGTCTCCC
DNA 2: TGGTGGCTACGACGGGATT
B6: UUAAAUG (DNA:RNA)
RNA: B1 RNA with C26U, U27A, C28A, C29A, G30U, A31G
DNA 1: CAATCTGAATTCCGGTCTCCC
DNA 2: TGGTGGCTACGACGGGATT
B7: ACUCGGG (DNA:RNA)
RNA: B1 RNA with U25A, C29G, A31G
DNA 1: CAATCTGAATTCCGGTCTCCC
DNA 2: TGGTGGCTACGACGGGATT
B8: GUUACUG (DNA:RNA)
RNA: B1 RNA with U25G, C26U, C28A, G30U, A31G
DNA 1: CAATCTGAATTCCGGTCTCCC
DNA 2: TGGTGGCTACGACGGGATT
B9: AGUUAUC (DNA:RNA)
RNA: B1 RNA with U25A, C26G, C28U, C29A, G30U, A31C
DNA 1: CAATCTGAATTCCGGTCTCCC
DNA 2: TGGTGGCTACGACGGGATT
B10: GGAUUAG (DNA:RNA)
RNA: GGGAGACCGGAAUUCAGAUUGUCCGGAUUAGUUAAAUCCCGUCGUAGCCACCA
DNA 1: CAATCTGAATTCCGGTCTCCC
DNA 2: TGGTGGCTACGACGGGATT
B11: CACAUUU (DNA:RNA)
RNA: B10 RNA with G25C, G26A, A27C, U28A, A30U, G31U
DNA 1: CAATCTGAATTCCGGTCTCCC
DNA 2: TGGTGGCTACGACGGGATT
B12: CAAAGAC (DNA:RNA)
RNA: B10 RNA with G25C, G26A, U28A, U29G, G31C
DNA 1: CAATCTGAATTCCGGTCTCCC
DNA 2: TGGTGGCTACGACGGGATT
B13: GUCGGUA (DNA:RNA)
RNA: B10 RNA with G26U, A27C, U28G, U29G, A30U, G31A
DNA 1: CAATCTGAATTCCGGTCTCCC
DNA 2: TGGTGGCTACGACGGGATT
B14: CCACGUA (DNA:RNA)
RNA: B1 RNA with U25C, U27A, C29G, G30U
DNA 1: CAATCTGAATTCCGGTCTCCC
DNA 2: TGGTGGCTACGACGGGATT
B15: UCCUCUA (DNA:RNA)
RNA: B1 RNA with U27C, C28U, G30U
DNA 1: CAATCTGAATTCCGGTCTCCC
DNA 2: TGGTGGCTACGACGGGATT
B16: AUGGGAG (DNA:RNA)
RNA: B10 RNA with G25A, G26U, A27G, U28G, U29G
DNA 1: CAATCTGAATTCCGGTCTCCC
DNA 2: TGGTGGCTACGACGGGATT
B17: CUCGGCC (DNA:RNA)
RNA: GGGAGACCGGAAUUCAGAUUGUCCCUCGGCCUUAAAUCCCGUCGUAGCCACCA
DNA 1: CAATCTGAATTCCGGTCTCCC
DNA 2: TGGTGGCTACGACGGGATT
B18: ACCAGAU (DNA:RNA)
RNA: B17 RNA with C25A, U26C, G28A, C30A, C31U
DNA 1: CAATCTGAATTCCGGTCTCCC
DNA 2: TGGTGGCTACGACGGGATT
B19: GAUAUAC (DNA:RNA)
RNA: B10 RNA with G26A, A27U, U28A, G31C
DNA 1: CAATCTGAATTCCGGTCTCCC
DNA 2: TGGTGGCTACGACGGGATT
B20: UCCUACG (DNA:RNA)
RNA: B17 RNA with C25U, U26C, G28U, G29A, C31G
DNA 1: CAATCTGAATTCCGGTCTCCC
DNA 2: TGGTGGCTACGACGGGATT

target: T1, RBFOX1 RRM RbFoxmut (Fox-RRM*) (Homo sapiens, UniProt Q9NWB1 109-208, R118D;E147R;N151S;E152T); assay: EMSA; HiTS-Eq, 1 nM pool, 10 min; buffer printed only for the single-RNA assays: 10 mM Tris pH 7.5, 150 mM NaCl, 3.4 mM EDTA, 0.001% NP-40, 30 C; conditions: tags: His6 N-terminal (pET28a); label: 5' 32P
T1 sequence: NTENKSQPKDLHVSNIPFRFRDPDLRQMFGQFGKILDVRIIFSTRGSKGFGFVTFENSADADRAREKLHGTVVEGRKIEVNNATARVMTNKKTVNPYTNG
In short: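 A pool of RNA with 7 randomized nucleotides, 5′-radiolabelled and with DNA-annealed flanks, was equilibrated at 1 nM for 10 min in 50 µL with purified RbFox RRM, wild type or mutant, across increasing protein concentrations. Free RNA was separated by 8% native PAGE, excised, reverse-transcribed, barcoded by PCR and sequenced. Relative association constants were obtained from read-count changes of each RNA species versus the control reaction and normalised to the cognate motif.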

Binder | binding signal
B1 | 0.0673 KA relative to UGCAUGU
B2 | 0.124 KA relative to UGCAUGU
B3 | 0.954 KA relative to UGCAUGU
B4 | 0.0998 KA relative to UGCAUGU
B5 | 0.0835 KA relative to UGCAUGU
B6 | 0.0888 KA relative to UGCAUGU
B7 | 0.0886 KA relative to UGCAUGU
B8 | 0.132 KA relative to UGCAUGU
B9 | 0.115 KA relative to UGCAUGU
B10 | 0.108 KA relative to UGCAUGU
B11 | 0.0891 KA relative to UGCAUGU
B12 | 0.0623 KA relative to UGCAUGU
B13 | 0.2 KA relative to UGCAUGU
B14 | 0.142 KA relative to UGCAUGU
B15 | 0.0903 KA relative to UGCAUGU
B16 | 0.142 KA relative to UGCAUGU
B17 | 0.195 KA relative to UGCAUGU
B18 | 0.0877 KA relative to UGCAUGU
B19 | 0.0885 KA relative to UGCAUGU
B20 | 0.109 KA relative to UGCAUGU

— PMC9911399, “Two distinct binding modes provide the RNA-binding protein RbFox with extraordinary sequence specificity”
